Data: PubChem BioAssay AID1347417 (National Center for Advancing Translational Sciences (NCATS), 2020)
Where “and” joins values, the source holds several entries; their conditions need not be identical. Equal values may be shown once. About 5,300 (4.4%) of roughly 120,000 compounds were called active. Inconclusive results, whose numbers are uncertain, are shown with a selection of clear calls. Calls follow the shape of the dose curve; as a rule, active = well fitted inhibition curve with a large enough effect; inconclusive = small, poorly fitted or top-dose-only effect; inactive = no such curve, though single readings can be large or run the other way. Potencies beside an inconclusive call are fits to weak or partial responses and may not hold up.

test: qHTS Primary assay for Inhibitors of Plasmodium falciparum Dd2 growth in vitro; also: nearly all actives have a fitted effect of over 65% in size;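 as to activity, negative = inhibition: plate controls were DMSO vehicle for no effect and reference drug for full effect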; settings: P. falciparum Dd2 growth, SYBR Green, 72 h; activity, negative = inhibition: at 28.9 µM (top of the series) unless noted; series mostly up to 28.9 µM
In short: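 Readout: SYBR Green fluorescence, 485 nm excitation, 535 nm emission, after ~16 h lysis at 37C. Before that, Dd2-infected red cells (2.5% hematocrit) grew 72 h with compound, 29 uM top final concentration.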
Potency is read from the fitted curve at half-maximal effect; tags tell the direction and shape of the fitted curve.

| Compound | Potency | activity, negative = inhibition |
| --- | --- | --- |
| Cc1nc(CN2C(=O)OC3(CCN(C(=O)c4ccnn4C)CC3)C2(C)c2ccccc2)cs1 (configuration not stated) | inconclusive: 3.98 µM [inhibitor, full curve, poor fit] | – |
| COc1ccc(CN2CCn3c(nnc3C3CCCNC3)C2)cc1 (configuration not stated) | inactive | – |
| Cc1ccc(S(=O)(=O)N(CC(=O)Nc2ccc(F)cc2F)Cc2ccc(F)cc2)cc1 | inconclusive: 10 µM [inhibitor, single point] | – |
| c1csc(-c2nc3ccncc3[nH]2)c1 | inconclusive: 28.2 µM [inhibitor, partial curve, poor fit] and active: 17.8 µM | – |
| c1ccc(C2(c3ccccc3)CCCN(Cc3cscn3)C2)cc1 | inconclusive: 11.2 µM [inhibitor, single point] | – |
| COC[C@@H]1CN(C(=O)c2nccc3ccccc23)C[C@H]1c1ccncc1 | inconclusive: 8.91 µM [inhibitor, partial curve] | – |
| Cc1noc2c(-c3cn[nH]c3)cc(-c3ccccc3)nc12 | inactive | – |
| CC(C)N1CCC[C@H]1c1nc(-c2ccc(OC3CCCCC3)nc2)no1 | inactive | – |
| Cc1cccc(C(=O)Nc2c(C(=O)N3CCN(c4ccc(F)cc4)CC3)oc3ccccc23)c1 | active: 12.6 µM | – |
| COc1cc(OC)cc(C(=O)N2CC(c3noc(-c4ccccc4)n3)C2)c1 | inconclusive: 7.08 µM [inhibitor, partial curve, poor fit] | – |
| CCOc1cc2c(cc1OCC)C(CC(=O)OC)N(C(=O)Nc1cc(OC)ccc1OC)CC2 (configuration not stated) | inconclusive: 17.8 µM [inhibitor, single point] | – |
| COc1ccc(-c2cnc3[nH]cc(CC(=O)N4CCN(c5ccccn5)CC4)c3c2)cc1 | inconclusive: 7.08 µM [inhibitor, partial curve, poor fit] | – |
| Cc1cc(=O)[nH]c(CCNC(=O)c2ccc(C)c(N3CCNC3=O)c2)n1 | inactive | – |
| Cc1ccccc1-c1nc(N2CCOCC2)cc2c1CN(Cc1cnn(C)c1)C2=O | inactive | – |
| CCN(CC)C(=O)c1sc2c(c1C)c(=O)n(CCc1ccccc1)c(=O)n2Cc1ccc(C)cc1 | active: 11.2 µM | – |
| O=C1CC2(CCN(c3cncc(C(=O)N4CCCCC4)n3)C2)C(=O)N1 (configuration not stated) | inactive | – |
| Cc1ccc(NC(=O)CN2C(=O)C(c3ccc(C)cc3)=NC23CCCCCC3)cc1 | inconclusive: 12.6 µM [inhibitor, single point] | – |
| COc1ccc2c(c1)c(=O)c(S(=O)(=O)c1ccc(Cl)cc1)cn2Cc1cc(C)ccc1C | active: 11.2 µM | – |
| CC(C)C(=O)N1CCC2(CC1)CC(N(Cc1ccc(F)cc1)C1CC1)CCO2 (configuration not stated) | inconclusive: 7.08 µM [inhibitor, partial curve, poor fit] | – |
| Cc1cccc(OCC(=O)N2CCCC(c3noc(COc4ccccc4F)n3)C2)c1 (configuration not stated) | inconclusive: 17.8 µM [inhibitor, single point] | – |
| CC(=O)c1c(C)n(S(=O)(=O)c2ccc(Cl)cc2)c2ccc(NS(=O)(=O)c3ccc(Cl)cc3)cc12 | active: 11.2 µM | – |

| Compound | Potency | activity, negative = inhibition |
| --- | --- | --- |
| COc1cccc(NC(=O)O[C@@H]2CC[C@]3(C)[C@H](CC[C@H]4OC(=O)C[C@H]43)[C@]2(C)CO)c1 | inconclusive: 14.1 µM [inhibitor, single point] | – |
| CC(NC(=O)c1cc2n(n1)CC(c1ccc(Cl)cc1)OC2)c1ccccc1 (configuration not stated) | inconclusive: 6.31 µM [inhibitor, single point] | – |
| CCC[S+](=O)([O-])N1CCN(C(=O)N2CC3CC(C2)[C@H]2CCCC(=O)N2C3)CC1 (some centres not stated) | inactive | – |
| Cn1cc(C(=O)NCCc2noc(C3CC3)n2)cn1 | inactive | – |
| CNC(=O)C(C)(C)N1CCC[C@H]1C(=O)N1CCCCCC1 | inconclusive: 6.31 µM [inhibitor, partial curve] | – |
| O=C(Nc1ccc2[nH]ccc2c1)C1=NO[C@@H]2CN(Cc3ccc(F)cc3)C[C@H]12 | inconclusive: 22.4 µM [inhibitor, single point] | – |
| COc1ccc(NCc2cccn2-c2nnc(N3CCOCC3)s2)cc1OC | inconclusive: 17.8 µM [inhibitor, single point] | – |
| O=C(N[C@@H]1CCN(Cc2ccc3nsnc3c2)C[C@H]1O)c1cnccn1 | inactive | – |
| CC(C)(CC(=O)O)CC(=O)N1Cc2[nH]cnc2C[C@H]1c1nc(-c2ccc3c(c2)OCO3)no1 | inconclusive: 11.2 µM [inhibitor, partial curve, poor fit] | – |
| COc1ccccc1CN1CC[C@H]2COC(=O)N2c2cc(C)ccc2C1 | inactive | – |
| CCCNC(=O)c1cccc2c1CCN2S(=O)(=O)c1cccc(C)c1 | inconclusive: 17.8 µM [inhibitor, single point] | – |
| CCOc1ccc(NC(=O)[C@@H]2C[C@@H](O)CN2C2CCN(C(=O)c3cccc(OC)c3)CC2)cc1 | inconclusive: 12.6 µM [inhibitor, partial curve, poor fit] | – |
| CN1C(=O)CCc2cc(NC(=O)Cc3ccc(Cl)cc3)ccc21 | inactive | – |
| CCCCCCNC(=O)CCc1c(C)nc2nc(-c3cc(OC)cc(OC)c3)nn2c1C | inconclusive: 10 µM [inhibitor, single point] | – |
| CCOC(=O)N1CCN(Cc2nc3cc(NC(=O)c4ccc(F)cc4)ccc3n2C(C)C)CC1 | inconclusive: 11.2 µM [inhibitor, single point] | – |
| COc1ccc(-c2cn3c(n2)sc2cc(C(=O)NCC(C)c4ccccc4)ccc23)cc1 (configuration not stated) | inconclusive: 14.1 µM [inhibitor, single point] | – |
| Cc1noc(-c2cn(C3CCN(C(=O)c4ccc(C#N)cc4)CC3)nn2)n1 | inconclusive: 11.2 µM [inhibitor, single point] | – |
| COCCn1c(C)cnc1CCNS(=O)(=O)Cc1ccccc1F | inconclusive: 2.24 µM [inhibitor, full curve] | – |
| O=C(NC1CCCCC1)C1CN(C(=O)c2cccc(Br)c2)CC12CCOCC2 (configuration not stated) | inactive | – |
| Cc1c(Cl)cccc1NC(=O)Nc1nnc(N(C)C2CCCCC2)s1 | – | inconclusive: -102% [inhibitor] [at 5.79 µM] |
| Cn1ncc2c(N[C@H]3C[C@H]4C(=O)NCC(=O)N4C3)nc(C3CCCC3)nc21 | inconclusive: 11.2 µM [inhibitor, single point] | – |
